Patent US11000038B2, “Pyridone compounds and agricultural and horticultural fungicides containing the same as active ingredients” (priority 2017, dated 2021)

Assays:
[1] = tested on: cabbage Alternaria sooty spot fungi (Alternaia brassicicola); assay: Test Example C: cabbage Alternaria sooty spot, spray treatment of cabbage plants; assay type: in vivo; details: cabbage Alternaria sooty spot, spray treatment
Text: [Test Example C] Cabbage Alternaria Sooty Spot
Test plants (cabbage variety: Shikidori) were cultivated until the cotyledons extended after the sowing of seeds.
<Control Value> Control value=100{1−(n/3)}

[2] = tested on: wheat brown rust fungi (Puccinia recondita); assay: Test Example E: wheat brown rust, spray treatment of wheat plants; assay type: in vivo; details: wheat brown rust, spray treatment
[3] = tested on: gray mold fungi (Botrytis cinerea); assay: Test Example B: tomato gray mold, spray treatment of tomato plants; details: tomato gray mold, spray treatment
[4] = tested on: grape downy mildew fungus (Plasmopara viticola); assay: Test Example G: grape downy mildew, spray treatment of grape plants; details: grape downy mildew, 250 ppm spray, 7 to 10 days after inoculation
[5] = tested on: barley powdery mildew fungi (Blumeria graminis f. sp. hordei); assay: Test Example D: barley powdery mildew, spray treatment of barley plants; details: barley powdery mildew, spray treatment

| Compound | Test C control value [1] | Test E control value [2] | Test B control value [3] | Test G control value [4] | Test D control value [5] |
| --- | --- | --- | --- | --- | --- |
| Cc1cccc(-n2cc(C)c(=O)c(C)c2-c2c(F)cccc2F)c1C [Compound 478] | H (H shows the control value of more than 50%) | H (H shows the control value of more than 50%) | H (H shows the control value of more than 50%) | H (H shows the control value of more than 50%) | H (H shows the control value of more than 50%) |
| Cc1c(F)cccc1-n1cc(C)c(=O)c(C)c1-c1c(F)cccc1F [Compound 479] | H (H shows the control value of more than 50%) | H (H shows the control value of more than 50%) | H (H shows the control value of more than 50%) | H (H shows the control value of more than 50%) | H (H shows the control value of more than 50%) |
| Cc1c(Br)cccc1-n1cc(C)c(=O)c(C)c1-c1c(F)cc(F)cc1F [Compound 480] | H (H shows the control value of more than 50%) | H (H shows the control value of more than 50%) | H (H shows the control value of more than 50%) | H (H shows the control value of more than 50%) | H (H shows the control value of more than 50%) |
| COc1cccc(-n2cc(C)c(=O)c(C)c2-c2c(F)cc(F)cc2F)c1C [Compound 481] | H (H shows the control value of more than 50%) | H (H shows the control value of more than 50%) | H (H shows the control value of more than 50%) | H (H shows the control value of more than 50%) | H (H shows the control value of more than 50%) |
| Cc1cccc(-n2cc(C)c(=O)c(C)c2-c2ccccc2)c1C [Compound 482] | H (H shows the control value of more than 50%) | H (H shows the control value of more than 50%) | H (H shows the control value of more than 50%) | L (L shows the control value of 50% or less) | L (L shows the control value of 50% or less) |
| Cc1c(F)cccc1-n1cc(C)c(=O)c(C)c1-c1ccccc1 [Compound 483] | H (H shows the control value of more than 50%) | H (H shows the control value of more than 50%) | H (H shows the control value of more than 50%) | H (H shows the control value of more than 50%) | L (L shows the control value of 50% or less) |
| Cc1c(Cl)cccc1-n1cc(C)c(=O)c(C)c1-c1ccccc1 [Compound 484] | H (H shows the control value of more than 50%) | H (H shows the control value of more than 50%) | H (H shows the control value of more than 50%) | L (L shows the control value of 50% or less) | H (H shows the control value of more than 50%) |
| CCc1ccccc1-n1cc(C)c(=O)c(C)c1-c1c(F)cccc1F [Compound 485] | H (H shows the control value of more than 50%) | H (H shows the control value of more than 50%) | H (H shows the control value of more than 50%) | L (L shows the control value of 50% or less) | L (L shows the control value of 50% or less) |
| Cc1ccc(Cl)cc1-n1cc(C)c(=O)c(C)c1-c1c(F)cccc1F [Compound 486] | L (L shows the control value of 50% or less) | H (H shows the control value of more than 50%) | H (H shows the control value of more than 50%) | L (L shows the control value of 50% or less) | H (H shows the control value of more than 50%) |
| CCc1ccccc1-n1cc(Br)c(=O)c(CC)c1-c1c(F)cc(F)cc1F [Compound 488] | H (H shows the control value of more than 50%) | H (H shows the control value of more than 50%) | H (H shows the control value of more than 50%) | H (H shows the control value of more than 50%) | H (H shows the control value of more than 50%) |
| CCc1ccccc1-n1cc(C)c(=O)c(CC)c1-c1c(F)cc(F)cc1F [Compound 489] | H (H shows the control value of more than 50%) | H (H shows the control value of more than 50%) | H (H shows the control value of more than 50%) | H (H shows the control value of more than 50%) | H (H shows the control value of more than 50%) |
| CCc1c(-c2c(F)cc(F)cc2F)n(-c2ccccc2Cl)cc(C)c1=O [Compound 491] | H (H shows the control value of more than 50%) | H (H shows the control value of more than 50%) | H (H shows the control value of more than 50%) | L (L shows the control value of 50% or less) | H (H shows the control value of more than 50%) |
| CCc1c(-c2c(F)cc(F)cc2F)n(-c2ccccc2)cc(Br)c1=O [Compound 492] | H (H shows the control value of more than 50%) | H (H shows the control value of more than 50%) | H (H shows the control value of more than 50%) | L (L shows the control value of 50% or less) | L (L shows the control value of 50% or less) |
| CCc1c(-c2c(F)cc(F)cc2F)n(-c2ccccc2)cc(C)c1=O [Compound 493] | H (H shows the control value of more than 50%) | H (H shows the control value of more than 50%) | H (H shows the control value of more than 50%) | L (L shows the control value of 50% or less) | H (H shows the control value of more than 50%) |
| Cc1c(Cl)cccc1-n1cc(C)c(=O)c(C)c1-c1c(F)cccc1F [Compound 494] | H (H shows the control value of more than 50%) | H (H shows the control value of more than 50%) | H (H shows the control value of more than 50%) | L (L shows the control value of 50% or less) | H (H shows the control value of more than 50%) |
| Cc1c(Br)cccc1-n1cc(C)c(=O)c(C)c1-c1c(F)cccc1F [Compound 496] | H (H shows the control value of more than 50%) | H (H shows the control value of more than 50%) | H (H shows the control value of more than 50%) | L (L shows the control value of 50% or less) | H (H shows the control value of more than 50%) |
| CCc1c(-c2c(F)cccc2F)n(-c2cccc(C)c2C)cc(C)c1=O [Compound 497] | H (H shows the control value of more than 50%) | H (H shows the control value of more than 50%) | H (H shows the control value of more than 50%) | L (L shows the control value of 50% or less) | L (L shows the control value of 50% or less) |
| CCc1ccccc1-n1cc(Br)c(=O)c(CC)c1-c1ccccc1 [Compound 498] | L (L shows the control value of 50% or less) | L (L shows the control value of 50% or less) | L (L shows the control value of 50% or less) | L (L shows the control value of 50% or less) | L (L shows the control value of 50% or less) |
| CCc1c(-c2ccccc2)n(-c2cc(Br)ccc2C)cc(Br)c1=O [Compound 499] | L (L shows the control value of 50% or less) | L (L shows the control value of 50% or less) | L (L shows the control value of 50% or less) | L (L shows the control value of 50% or less) | L (L shows the control value of 50% or less) |
